# According to the supplement of paper PMC11880418:
# Structures can show the parent of a compound that is named as a salt. This is one part of the list. The data scatter; read single values as rough.
# Tested on: PANC1
# Assay: ALDHbr (CSC) cell proportion score relative to DMSO vehicle (ratio to DMSO); breast (SUM159) / gastric (MKN45) / pancreatic (PANC1) / colon cancer lines; ALDHbr cells have high ALDH activity and are rich in cancer stem cells (CSC); higher = more CSC (ALDHbr) cells remaining
# Conditions: 10 µM; 72 h
# 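Also: High-content imaging of ALDEFLUOR-stained cells with Hoechst-labelled nuclei in 384-well plates, triplicate wells, scored as Z-score against 0.1% DMSO vehicle, negative meaning fewer ALDHbr cells.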
row,Compound,ALDHbr
1,Cc1ccccc1C(OCCN(C)C)c1ccccc1 (configuration not stated) [Orphenadrine hydrochloride],1.04
2,CN(CCCN1c2ccccc2CCc2ccccc21)CC(=O)c1ccc(Cl)cc1 [Lofepramine],1.05
3,COC(=O)C1=C(C)NC(C)=C(C(=O)OCC(C)C)C1c1ccccc1[N+](=O)[O-] (configuration not stated) [Nisoldipine],0.742
4,CC(C)[C@H]1CC[C@H](C(=O)N[C@H](Cc2ccccc2)C(=O)O)CC1 [Nateglinide],1.01
5,Nc1ncn(C2OC(CO)C(O)C2O)c(=O)n1 (configuration not stated) [Azacytidine-5],0.997
6,CCCCc1oc2ccccc2c1C(=O)c1cc(I)c(OCCN(CC)CC)c(I)c1 [Amiodarone hydrochloride],1.25
7,CC(=O)Oc1cc(C(C)C)c(OCCN(C)C)cc1C [Moxisylyte hydrochoride],1.11
8,O=C(OCCOCCO)c1ccccc1Nc1cccc(C(F)(F)F)c1 [Etofenamate],0.804
9,COCCCOc1cc(C[C@@H](C[C@H](N)[C@@H](O)C[C@H](C(=O)NCC(C)(C)C(N)=O)C(C)C)C(C)C)ccc1OC [Aliskiren hemifumarate],0.741
10,CC1(C)O[C@@H]2C[C@H]3[C@@H]4C[C@H](F)C5=CC(=O)C=C[C@]5(C)[C@H]4[C@@H](O)C[C@]3(C)[C@]2(C(=O)CO)O1 [Flunisolide],0.698
11,CN1CCN(CCCN2c3ccccc3Sc3ccc(C(F)(F)F)cc32)CC1 [Trifluoperazine dihydrochloride],1.01
12,Nc1ccc(S(=O)(=O)Nc2ncccn2)cc1 [Sulfadiazine],0.809
13,CCCCOc1cc(C(=O)OCCN(CC)CC)ccc1N [Benoxinate hydrochloride],0.992
14,CCCCNc1cc(C(=O)O)cc(S(N)(=O)=O)c1Oc1ccccc1 [Bumetanide],0.765
15,O=P(O)(O)C(O)(Cc1cccnc1)P(=O)(O)O [Risedronic acid monohydrate],0.941
16,CCOC(=O)C1=C(C)NC(C)=C(C(=O)OCC)C1c1ccccc1/C=C/C(=O)OC(C)(C)C [Lacidipine],0.895

row,Compound,ALDHbr
1,CC(CN(C)C)CN1c2ccccc2CCc2ccccc21 (configuration not stated) [Trimipramine maleate salt],1.31
2,Cc1cccc(C)c1NC(=O)C1CCCCN1C (configuration not stated) [Mepivacaine hydrochloride],0.982
3,Cc1[nH]c(=O)c(C#N)cc1-c1ccncc1 [Milrinone],0.761
4,O=C(CCCN1CCC(O)(c2ccc(Cl)cc2)CC1)c1ccc(F)cc1 [Haloperidol],0.684
5,CCc1nn(CCCN2CCN(c3cccc(Cl)c3)CC2)c(=O)n1CCOc1ccccc1 [Nefazodone hydrochloride],1.05
6,CCN(CC)C(=O)N1CCN(C)CC1 [Diethylcarbamazine citrate],0.911
7,CCCC1O[C@@H]2C[C@H]3[C@@H]4CCC5=CC(=O)C=C[C@]5(C)[C@H]4[C@@H](O)C[C@]3(C)[C@]2(C(=O)CO)O1 (some centres not stated) [Budesonide],0.698
8,CCC[C@H](N[C@@H](C)C(=O)N1[C@H](C(=O)O)C[C@@H]2CCCC[C@@H]21)C(=O)OCC [Perindopril],1.11
9,CN(C)CCOC(c1ccccc1)c1ccccc1 [Diphenhydramine hydrochloride],0.939
10,CCOC(=O)OC(C)OC1=C(C(=O)Nc2ccccn2)N(C)S(=O)(=O)c2ccccc21 (configuration not stated) [Ampiroxicam],0.92
11,C#CCN[C@@H]1CCc2ccccc21 [Rasagiline],0.928
12,CC(C)[N+](C)(CCOC(=O)C1c2ccccc2Oc2ccccc21)C(C)C [Propantheline bromide],1
13,C=C1c2c(Cl)ccc(O)c2C(O)=C2C(=O)[C@]3(O)C(O)=C(C(N)=O)C(=O)[C@@H](N(C)C)[C@@H]3[C@@H](O)[C@H]12.O=C(O)c1cc(S(=O)(=O)O)ccc1O [Meclocycline sulfosalicylate],0.401
14,COCC1=C(C(=O)OC(C)OC(=O)OC(C)C)N2C(=O)[C@@H](NC(=O)/C(=N\OC)c3csc(N)n3)[C@H]2SC1 (some centres not stated) [Cefpodoxime proxetil],1.01
15,CCOc1ccccc1OC(c1ccccc1)C1CNCCO1 (configuration not stated) [Reboxetine mesylate],0.883
16,CCN(CC)CCOC(=O)c1ccc(N)cc1 [Procaine hydrochloride],0.791
